# Experimental data reported in the supplement of paper PMC8728848.
# The list shows a part of the results.
# B1: RBMC1 (Vibrio cholerae) (protein)
# chain: QQSQRVVTADNLMYLRSGFAIDAIGTTVNNLVGGPVQGTNGGVLRAPIALDQLQSVEVTSGLYNWGGYHIVAIKFTMKDGSSVLLGSTHYASNKKVETYTVPQGKRIKQINVWTGGWLVEGFQFVY
# Key:
# Experiment in all cases: glycan array binding signal (z-score within array); higher = stronger binding
# Conditions in all cases: glycan notation: IUPAC condensed, linker removed
# [1] = target: Fuc(a1-2)Gal6S(b1-3)GlcNAc6S
# How it was run: (§1)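 The binding signal is a Z-score computed within each array. Data were drawn from 3228 arrays in the Consortium for Functional Glycomics database, restricted to those with a known protein sequence. Scores were averaged over arrays of the same protein sequence at different concentrations or buffers, and over linkers, and negative values can be taken as non-binding.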
# Fuc(a1-2)Gal6S(b1-4)Glc = target: Fuc(a1-2)Gal6S(b1-4)Glc
# How it was run: as §1
# [2] = target: Fuc(a1-2)Gal6S(b1-4)Glc6S
# How it was run: as §1
# Fuc(a1-2)[Gal(a1-3)]Gal = target: Fuc(a1-2)[Gal(a1-3)]Gal
# How it was run: as §1
# [3] = target: Fuc(a1-2)[Gal(a1-3)]Gal(b1-3)GalNAc
# How it was run: as §1
# [4] = target: Fuc(a1-2)[Gal(a1-3)]Gal(b1-3)GalNAc(b1-3)Gal(a1-4)Gal(b1-4)Glc
# How it was run: as §1
# [5] = target: Fuc(a1-2)[Gal(a1-3)]Gal(b1-3)GlcNAc
# How it was run: as §1
# [6] = target: Fuc(a1-2)[Gal(a1-3)]Gal(b1-3)GlcNAc(b1-2)Man(a1-3)[Fuc(a1-2)[Gal(a1-3)]Gal(b1-3)GlcNAc(b1-2)Man(a1-6)]Man(b1-4)GlcNAc(b1-4)GlcNAc
# How it was run: as §1
# [7] = target: Fuc(a1-2)[Gal(a1-3)]Gal(b1-3)GlcNAc(b1-2)Man(a1-3)[Fuc(a1-2)[Gal(a1-3)]Gal(b1-3)GlcNAc(b1-2)Man(a1-6)]Man(b1-4)GlcNAc(b1-4)[Fuc(a1-6)]GlcNAc
# How it was run: as §1
# [8] = target: Fuc(a1-2)[Gal(a1-3)]Gal(b1-3)GlcNAc(b1-3)GalNAc
# How it was run: as §1
# [9] = target: Fuc(a1-2)[Gal(a1-3)]Gal(b1-3)GlcNAc(b1-6)GalNAc
# How it was run: as §1
# [10] = target: Fuc(a1-2)[Gal(a1-3)]Gal(b1-4)Glc
# How it was run: as §1
# [11] = target: Fuc(a1-2)[Gal(a1-3)]Gal(b1-4)GlcNAc
# How it was run: as §1
# [12] = target: Fuc(a1-2)[Gal(a1-3)]Gal(b1-4)GlcNAc(b1-2)Man
# How it was run: as §1
# [13] = target: Fuc(a1-2)[Gal(a1-3)]Gal(b1-4)GlcNAc(b1-2)Man(a1-3)[Fuc(a1-2)[Gal(a1-3)]Gal(b1-4)GlcNAc(b1-2)Man(a1-6)]Man(b1-4)GlcNAc(b1-4)GlcNAc
# How it was run: as §1
# [14] = target: Fuc(a1-2)[Gal(a1-3)]Gal(b1-4)GlcNAc(b1-2)Man(a1-3)[Fuc(a1-2)[Gal(a1-3)]Gal(b1-4)GlcNAc(b1-2)Man(a1-6)]Man(b1-4)GlcNAc(b1-4)[Fuc(a1-6)]GlcNAc
# How it was run: as §1
# [15] = target: Fuc(a1-2)[Gal(a1-3)]Gal(b1-4)GlcNAc(b1-3)GalNAc
# How it was run: as §1
# [16] = target: Fuc(a1-2)[Gal(a1-3)]Gal(b1-4)GlcNAc(b1-3)[Fuc(a1-2)[Gal(a1-3)]Gal(b1-4)GlcNAc(b1-6)]GalNAc
# How it was run: as §1
# [17] = target: Fuc(a1-2)[Gal(a1-3)]Gal(b1-4)GlcNAc(b1-6)GalNAc
# How it was run: as §1
# [18] = target: Fuc(a1-2)[Gal(a1-3)]Gal(b1-4)[Fuc(a1-3)]Glc
# How it was run: as §1
# [19] = target: Fuc(a1-2)[Gal(a1-3)]Gal(b1-4)[Fuc(a1-3)]GlcNAc
# How it was run: as §1
# [20] = target: Fuc(a1-2)[Gal(a1-3)]Gal(b1-4)[Fuc(a1-3)]GlcNAc(b1-3)GalNAc
# How it was run: as §1
# [21] = target: Fuc(a1-2)[Gal(a1-4)]Gal(b1-4)GlcNAc
# How it was run: as §1
# [22] = target: Fuc(a1-2)[GalNAc(a1-3)]Gal
# How it was run: as §1
# [23] = target: Fuc(a1-2)[GalNAc(a1-3)]Gal(b1-3)GalNAc(a1-3)[Fuc(a1-2)]Gal(b1-4)GlcNAc
# How it was run: as §1
# [24] = target: Fuc(a1-2)[GalNAc(a1-3)]Gal(b1-3)GalNAc(b1-3)Gal(a1-4)Gal(b1-4)Glc
# How it was run: as §1
# [25] = target: Fuc(a1-2)[GalNAc(a1-3)]Gal(b1-3)GlcNAc
# How it was run: as §1
# [26] = target: Fuc(a1-2)[GalNAc(a1-3)]Gal(b1-3)GlcNAc(b1-2)Man(a1-3)[Fuc(a1-2)[GalNAc(a1-3)]Gal(b1-3)GlcNAc(b1-2)Man(a1-6)]Man(b1-4)GlcNAc(b1-4)GlcNAc
# How it was run: as §1
# [27] = target: Fuc(a1-2)[GalNAc(a1-3)]Gal(b1-3)GlcNAc(b1-2)Man(a1-3)[Fuc(a1-2)[GalNAc(a1-3)]Gal(b1-3)GlcNAc(b1-2)Man(a1-6)]Man(b1-4)GlcNAc(b1-4)[Fuc(a1-6)]GlcNAc
# How it was run: as §1
# [28] = target: Fuc(a1-2)[GalNAc(a1-3)]Gal(b1-3)GlcNAc(b1-3)GalNAc
# How it was run: as §1
# [29] = target: Fuc(a1-2)[GalNAc(a1-3)]Gal(b1-3)GlcNAc(b1-6)GalNAc
# How it was run: as §1
# [30] = target: Fuc(a1-2)[GalNAc(a1-3)]Gal(b1-4)Glc
# How it was run: as §1
# [31] = target: Fuc(a1-2)[GalNAc(a1-3)]Gal(b1-4)GlcNAc
# How it was run: as §1
# [32] = target: Fuc(a1-2)[GalNAc(a1-3)]Gal(b1-4)GlcNAc(b1-2)Man
# How it was run: as §1
# [33] = target: Fuc(a1-2)[GalNAc(a1-3)]Gal(b1-4)GlcNAc(b1-2)Man(a1-3)[Fuc(a1-2)[GalNAc(a1-3)]Gal(b1-4)GlcNAc(b1-2)Man(a1-6)]Man(b1-4)GlcNAc(b1-4)GlcNAc
# How it was run: as §1
# [34] = target: Fuc(a1-2)[GalNAc(a1-3)]Gal(b1-4)GlcNAc(b1-2)Man(a1-3)[Fuc(a1-2)[GalNAc(a1-3)]Gal(b1-4)GlcNAc(b1-2)Man(a1-6)]Man(b1-4)GlcNAc(b1-4)[Fuc(a1-6)]GlcNAc
# How it was run: as §1
# [35] = target: Fuc(a1-2)[GalNAc(a1-3)]Gal(b1-4)GlcNAc(b1-3)Gal(b1-4)GlcNAc
# How it was run: as §1
# [36] = target: Fuc(a1-2)[GalNAc(a1-3)]Gal(b1-4)GlcNAc(b1-3)Gal(b1-4)GlcNAc(b1-3)Gal(b1-4)GlcNAc
# How it was run: as §1
# [37] = target: Fuc(a1-2)[GalNAc(a1-3)]Gal(b1-4)GlcNAc(b1-3)GalNAc
# How it was run: as §1
# [38] = target: Fuc(a1-2)[GalNAc(a1-3)]Gal(b1-4)GlcNAc(b1-3)[Fuc(a1-2)[GalNAc(a1-3)]Gal(b1-4)GlcNAc(b1-6)]GalNAc
# How it was run: as §1
# [39] = target: Fuc(a1-2)[GalNAc(a1-3)]Gal(b1-4)GlcNAc(b1-6)GalNAc
# How it was run: as §1
# [40] = target: Fuc(a1-2)[GalNAc(a1-3)]Gal(b1-4)[Fuc(a1-3)]GlcNAc
# How it was run: as §1
# [41] = target: Fuc(a1-2)[GalNAc(a1-3)]Gal(b1-4)[Fuc(a1-3)]GlcNAc(b1-3)GalNAc
# How it was run: as §1
# [42] = target: Fuc(a1-2)[GalNAc(a1-4)]Gal(b1-4)GlcNAc
# How it was run: as §1
# [43] = target: Fuc(a1-2)[GalNAc(b1-3)]Gal
# How it was run: as §1
binder,measurement,setting,value
B1,glycan array binding signal (z-score),[1],0.041
same,glycan array binding signal (z-score),Fuc(a1-2)Gal6S(b1-4)Glc,-0.306
same,glycan array binding signal (z-score),[2],-0.303
same,glycan array binding signal (z-score),Fuc(a1-2)[Gal(a1-3)]Gal,-0.15
same,glycan array binding signal (z-score),[3],-0.252
same,glycan array binding signal (z-score),[4],-0.195
same,glycan array binding signal (z-score),[5],-0.249
same,glycan array binding signal (z-score),[6],-0.043
same,glycan array binding signal (z-score),[7],-0.324
same,glycan array binding signal (z-score),[8],-0.2
same,glycan array binding signal (z-score),[9],-0.29
same,glycan array binding signal (z-score),[10],-0.236
same,glycan array binding signal (z-score),[11],-0.311
same,glycan array binding signal (z-score),[12],-0.302
same,glycan array binding signal (z-score),[13],0.321
same,glycan array binding signal (z-score),[14],-0.103
same,glycan array binding signal (z-score),[15],-0.388
same,glycan array binding signal (z-score),[16],-0.078
same,glycan array binding signal (z-score),[17],-0.377
same,glycan array binding signal (z-score),[18],-0.304
same,glycan array binding signal (z-score),[19],-0.406
same,glycan array binding signal (z-score),[20],-0.353
same,glycan array binding signal (z-score),[21],-0.337
same,glycan array binding signal (z-score),[22],-0.381
same,glycan array binding signal (z-score),[23],-0.27
same,glycan array binding signal (z-score),[24],-0.314
same,glycan array binding signal (z-score),[25],-0.423
same,glycan array binding signal (z-score),[26],-0.193
same,glycan array binding signal (z-score),[27],-0.33
same,glycan array binding signal (z-score),[28],-0.331
same,glycan array binding signal (z-score),[29],-0.39
same,glycan array binding signal (z-score),[30],-0.423
same,glycan array binding signal (z-score),[31],-0.421
same,glycan array binding signal (z-score),[32],-0.34
same,glycan array binding signal (z-score),[33],0.123
same,glycan array binding signal (z-score),[34],-0.124
same,glycan array binding signal (z-score),[35],-0.138
same,glycan array binding signal (z-score),[36],-0.467
same,glycan array binding signal (z-score),[37],-0.368
same,glycan array binding signal (z-score),[38],-0.178
same,glycan array binding signal (z-score),[39],-0.333
same,glycan array binding signal (z-score),[40],-0.277
same,glycan array binding signal (z-score),[41],-0.164
same,glycan array binding signal (z-score),[42],-0.366
same,glycan array binding signal (z-score),[43],-0.299
